Values marked as one replicate rest on one cluster of the flow cell; about a third of the high ones do not repeat.
Test system: ATP
Experiment: switch fluorescence ratio, 500 uM ATP over buffer (Cy3 cluster intensity, sum of 5 cycles each) (fold (ratio)); higher = stronger signal-on switching upon ATP binding; sequences stand for … in TCGTCGGCAGCGTCAGATGTGTATAAGAGACAGTTTTTTTTTTTTTTTTTTTTTTTTT…TC
Conditions: aptamer strand: ATP DNA aptamer (quencher-CACCTGGGGGAGTATTGCGGAGGAAGG + anchor), 100 nM annealed; ATP concentration: 500 uM; one replicate
Procedure, shortened: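 Per cluster, summed Cy3 intensity from the target cycles was divided by that from the buffer cycles to give the fluorescence ratio, then averaged per switch-domain sequence. Clusters outside 100-1000 RFU were excluded. The Cy3-labelled switching-strand clusters, on a modified Illumina MiSeq flow-cell, were annealed to 100 nM quencher-labelled ATP aptamer and imaged in selection buffer, then after 15 min with 500 uM ATP at 22 °C, for five cycles with NaOH stripping and re-annealing between them.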
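Note: ATP exposure 15 min at 22 °C before imaging.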

Sequence	switch fluorescence ratio
TGATGGAAAT	1
ATGTGGCCCC	0.984
CCTTATTTAG	1.01
GTGTCCACGG	0.915
TGATTCGATG	0.948
GAGTGCCTCG	0.957
TTAAATATTC	0.995
AGTGATCGG	1.03
TAAGGGTCCA	1.03
TATCATAGTC	1.02
TGTATTTAG	0.996
GCGGGAACTC	1.02
AGTTCCTAGG	1.03
AACGAGAGT	0.999
ACGAACCCCC	1.15
AGTCGCTTTC	1.05
TTTATGGACG	0.991
CTTACAGGCG	1.03
CCTCAATTAG	2.05
AAGAACGGAG	1.03
AGTAGCTCCG	1
GAGAGTGGCG	0.943
ATTTCGTTTT	1.02
GCATAATTG	1.01
TGAACTTGAT	1.05
TCGCAGCTCG	1.09

Sequence	switch fluorescence ratio
TTTTTCCAGA	1.01
CAGTAACCGG	0.991
GTTTAAAGA	1.01
TCTGCGACCT	1.1
GTGAGGGCGG	1.03
AGGGTGCTTG	1
CTAATTCGAA	0.957
AATCGACAGT	1.01
TCTAGAGGTC	0.914
CCGTATGGGC	1.06
GAGCGCACCT	1.13
CCTTGGGGCG	1.07
GACTCAAAGC	1.26
GCTCGAGCAG	0.985
TCTTGCTTGC	1.03
AGTCTTGGCC	0.983
TTTCCTATGC	1.39
CCGTTATATG	1.21
AGTCCCTTGA	0.993
TAGAGTCTGT	1.02
GACGTGGGCT	1.05
CCCCGAGGGT	3.22
GGCGTATTAC	1.29
TCGAAGTGGG	0.992
CGGCATGAAA	1.01
CTGTCGGTTC	1.06

Sequence	switch fluorescence ratio
TAGTGGATGT	1.09
GAACCGAGCA	1.36
GGATTGAGCT	0.999
TTTAAAAAGA	1.02
GGTTCGAATT	0.989
CGTCTGAACG	0.979
CGCGGCCGGA	0.989
TAGGCATGTT	0.955
CCACACGCTT	2.6
CGTTGTCGAT	1.03
TGCACTGATG	1.05
CTCAGGCATA	2.07
ACCGGTCCGC	4.65
TGCACCAGAG	1.08
CCTCCGTTCG	3.35
CACGAAGGGA	0.938
GGAAGATATA	0.982
CTGAGTGTTG	1
ATGAGTGGTT	0.987
CGGTATACC	0.973
AGAACCGGAG	1.12
GGAGTTAGCT	0.971
TGGATGTGC	0.993
TATTGGTCCA	0.982
AGGCGAAATA	1.01
GCGTTAGGT	0.981

Sequence	switch fluorescence ratio
GCGAGCCTAT	0.952
GAGAGTAAGT	1.03
TTTGAGTCCA	1.04
CTAGGAGCCC	0.977
TTTCTTTAGG	1.01
GCTTTATGTG	0.991
GCTTGGCTGC	1.05
AATCCAGAAT	0.956
AAGGTGTTGA	1.03
TACTATATAC	2.37
TTTTCGTGAC	1.06
ACCTTTTGCG	1.03
CGGTTGTGAT	0.998
GGAAGTTAGG	0.982
GCTATATTTA	1.04
ATCCAGAATA	0.977
CGTCTTAAAT	1.01
AGTAGATTGC	1.01
GTGGTTGTG	0.965
GTGAAGGGC	0.961
TCCGTTCCAA	1.07
AGTTCCGAAT	1.03
GTCTCGCGAA	1.06
ACCGACGAC	3.59
GAGGGTAGGG	0.92
ACTAGCATTG	1.05

Sequence	switch fluorescence ratio
CTGTCGCGAC	0.994
ATACGTGCTA	1.01
TAAGCAAGTA	1
TCACCAGCTG	1.04
GATTATCAAA	0.996
GTACTACATC	1.04
ATCGTAGTGA	0.998
TCTAGAAAGT	0.971
GGCAAAAGCG	1.01
GCGATCGGT	0.988
CGTCTAGAGC	0.973
AGGATTCAGC	0.979
CCATCGATGG	1.01
GAGTATTGTT	0.98
CGTATGTAGG	0.98
AGCTACGCTA	0.99
AAGACGCGGC	1.15
CGAATGACAT	1.01
AGAGCTTCTT	1.02
ACGTCTCAGC	1.01
ACTCATTGGT	1.01
TTACACAAAC	1.07
CTATCTAGGG	0.998
CGGAGGTGT	1
TTCAGATTTG	1.04
ACACCCA	1.23

Sequence	switch fluorescence ratio
CAGCGATCGT	1.03
TTTATGGTT	0.966
AGACTAGGAG	0.998
CTCAGCCCGA	1.09
AGCAGAAAGC	1.05
GCCTGTGGTT	0.987
GACGCTGACA	1.27
TGCCCCGCTA	1.79
ACTGAGTCA	1.04
GCTTAATAT	1.02
TCCGAATGGG	1.05
AAACGCGTTT	1
CGGTGAACC	1
TAGGCAGTCA	1.02
GCCAGCCCTG	1.04
ACCCGGCCCT	1.01
TTTTCCGTTA	1.03
GGGTAAGCGC	1.04
CCAAACTCAT	1.04
AAGTCACCTC	1.08
AGAACACGCG	1.04
AGTTGTACGG	0.989
TCATTATATT	1.05
CTCAAAAGAT	1.06
CTTTCTAGAC	1.02
TGATAAAACC	1.03

Sequence	switch fluorescence ratio
TTTTTGAACC	1
TAGGCATTGA	1.03
GGGACCACGT	1
ACTGCTGGGC	0.989
TGGTTCAGTA	0.997
CTTCCTCGGA	2.91
TGCTCTTTAT	1.01
CTGGCAATGG	3.27
AACGAGGAGG	0.94
AAGTTCGCGC	0.983
CGTAGAACAA	1.05
CGTGCAGTCC	1.07
TGTGGGGAGA	0.999
AAGTAAGGCT	1.02
GATATGAACT	1.01
TATTCCAATG	1.05
AATACCAATG	1.01
GTTCTATATA	0.959
TGTTGTCCCG	0.976
ATTTGGATC	1.01
AAGGTGTACG	1.06
CGATGGCGT	1.04
ATTCCCACGA	1.06
ACAAATTGTA	0.967
TTTGCGCGCC	0.917
GGTAGAAATG	1.01

Sequence	switch fluorescence ratio
AACGCACCTC	1.55
GGCTTCCGTC	1.12
CATATTCCAT	1.05
GTAGTTGCTC	1.01
CAATGCTGAA	0.993
TTCGACTGAA	1.03
CGAGATCGGG	0.982
ACTTTAGGAT	1.02
GGTGCGATGA	1.02
GGGATTACAA	1.03
GTTAGGTTGT	0.953
GTTCCTGAGG	1.05
CGTCTGAGTC	0.998
AATGGGGTGG	0.97
ACGCATAATA	1.37
CGAGTAAACA	1.06
CAAATAAGGG	1.01
CCGGAATCGC	3.52
TAAAAAGAAT	0.966
